# The inconclusive results got no clear call from the source; some entries with a clear call stand among them for comparison. For part of these data: Potencies beside an inconclusive call are fits to weak or partial responses and may not hold up. For part of these data: “Side channel” marks fits to a control or component signal instead of the main read-out. Calls of active or inactive are those of the source. Unless noted, calls come from the whole dose curve; as a rule, active = well fitted curve in either direction with a large enough effect (not every such curve was filed as active); inconclusive = small, poorly fitted or top-dose-only effect, or another doubt; inactive = flat fitted curve, though single readings scatter.
# Assays:
# [1] = AP1 Signaling Pathway (AID 357); settings: ME-180 AP-1-bla reporter, EGF-induced, beta-lactamase ratio, 5 h; at 17.2 µM (top of the series) unless noted;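 note: ME-180 reporter cells stimulated with EGF at its EC50 level; top concentration of the series differs between compounds; % is set by controls: 0 for no effect and ±100 for the full control effect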
# Outline: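 First, ME-180 AP-1-bla cells were cultured overnight at 37 °C in low-serum Opti-MEM. Next, titrated compounds with EC50 EGF were incubated 5 hours. Finally, CCF4 was added for 2.5 hours and the 460/530 nm ratio recorded.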
# [2] = NFAT Signaling Pathway (AID 444); settings: Jurkat NFAT-bla M1, carbachol, beta-lactamase ratio, 5 h; at 17.2 µM (top of the series) unless noted;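 note: carbachol stimulus at about its EC50 of 1 µM final; % is set by controls: 0 for no effect and ±100 for the full control effect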
# Outline: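 Read-out: CCF4 FRET ratio (460 nm/530 nm) after 1 h RT dye loading, used for %activity and AC50 from titration series. Cells: Jurkat NFAT-β-lactamase/M1 line, treated with compound plus 1 uM carbachol for 5 h, 37 °C.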
# [3] = Stat Signaling Pathway (AID 446); settings: ME-180 SIE beta-lactamase reporter, IL-6 stimulated, 5 h; at 7.69 µM (top of the series) unless noted;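 note: ME-180 cervical cancer cells given 40 pM IL-6 alongside compound; SIE-controlled beta-lactamase reporter measured as 460/530 nm FRET emission ratio; top concentration of the series differs between compounds; % is set by controls: 0 for no effect and ±100 for the full control effect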
# Outline: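 Reporter line: ME-180 cervical carcinoma, SIE-beta-lactamase. Treatment: compound with 40 pM IL-6, 5 hrs, 37 C, in low-serum OPTI-MEM with 10 mM HEPES pH 7.3. Detection: 460/530 nm fluorescence.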
# [4] = biological target: 3',5'-cyclic-AMP phosphodiesterase 4B (Homo sapiens) (UniProt Q07343); experiment: qHTS Assay for Inhibitors of PDE-IV (AID 607; active = well fitted activation curve with a large enough effect in the main read-out, with a control signal flat, not every such curve was filed as active; inconclusive = small, poorly fitted or top-dose-only effect, or effect the other way, or a change in a side signal; note: potency is the fitted concentration of half-maximal effect; for activation (PDE inhibition): % of control where 0% means no effect); settings: HEK293 ACTOne CNG channel cells, membrane potential fluorescence; activation (PDE inhibition): at 22.9 µM (top of the series)
# UniProt Q07343, sequence (Q07343 whole entry, looked up): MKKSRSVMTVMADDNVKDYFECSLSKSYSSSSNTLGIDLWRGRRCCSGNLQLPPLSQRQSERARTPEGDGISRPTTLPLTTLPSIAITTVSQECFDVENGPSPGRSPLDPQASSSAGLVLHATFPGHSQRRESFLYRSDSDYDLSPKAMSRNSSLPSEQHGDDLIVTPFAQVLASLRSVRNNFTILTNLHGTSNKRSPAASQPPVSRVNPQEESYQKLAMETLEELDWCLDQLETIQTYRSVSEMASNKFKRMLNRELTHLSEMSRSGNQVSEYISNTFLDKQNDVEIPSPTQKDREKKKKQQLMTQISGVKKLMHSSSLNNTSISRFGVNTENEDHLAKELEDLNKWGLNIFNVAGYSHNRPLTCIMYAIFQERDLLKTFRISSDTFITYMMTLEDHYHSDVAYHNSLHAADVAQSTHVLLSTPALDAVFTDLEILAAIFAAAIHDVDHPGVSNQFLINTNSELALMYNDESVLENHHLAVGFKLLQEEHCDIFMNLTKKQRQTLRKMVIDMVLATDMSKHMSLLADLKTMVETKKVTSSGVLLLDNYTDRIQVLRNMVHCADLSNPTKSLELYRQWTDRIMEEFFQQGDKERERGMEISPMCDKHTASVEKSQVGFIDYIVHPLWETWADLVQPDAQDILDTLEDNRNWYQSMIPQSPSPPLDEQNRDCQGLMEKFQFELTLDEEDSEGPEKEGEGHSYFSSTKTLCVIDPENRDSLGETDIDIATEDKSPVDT
# Outline: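 Cell-based read-out of cAMP via a modified cyclic nucleotide-gated channel and membrane potential dye (535/590 nm) in HEK293 cells expressing PDE4 endogenously. Compounds tested up to 22.9 uM final; 100 uM RO 20-1724 reference.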
# [5] = biological target: Ubiquitin carboxyl-terminal hydrolase 1 (Homo sapiens) (UniProt O94782); experiment: Inhibitors of USP1/UAF1: Pilot qHTS (AID 504865; active = well fitted curve in the direction sought with a large enough effect; inconclusive = small, poorly fitted or top-dose-only effect, or another doubt; inactive = no such curve, though single readings can be large; an effect the other way counts as inactive or inconclusive; note: potency is the fitted concentration of half-maximal effect;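 note: rhodamine fluorescence freed from ubiquitin-rhodamine substrate followed over time; nearly all actives have a fitted effect of over 35% in size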; for activity change, negative = inhibition: top concentration of the series differs between compounds; % is set by controls: 0 for no effect and ±100 for the full control effect)
# UniProt O94782, sequence (O94782 whole entry, looked up): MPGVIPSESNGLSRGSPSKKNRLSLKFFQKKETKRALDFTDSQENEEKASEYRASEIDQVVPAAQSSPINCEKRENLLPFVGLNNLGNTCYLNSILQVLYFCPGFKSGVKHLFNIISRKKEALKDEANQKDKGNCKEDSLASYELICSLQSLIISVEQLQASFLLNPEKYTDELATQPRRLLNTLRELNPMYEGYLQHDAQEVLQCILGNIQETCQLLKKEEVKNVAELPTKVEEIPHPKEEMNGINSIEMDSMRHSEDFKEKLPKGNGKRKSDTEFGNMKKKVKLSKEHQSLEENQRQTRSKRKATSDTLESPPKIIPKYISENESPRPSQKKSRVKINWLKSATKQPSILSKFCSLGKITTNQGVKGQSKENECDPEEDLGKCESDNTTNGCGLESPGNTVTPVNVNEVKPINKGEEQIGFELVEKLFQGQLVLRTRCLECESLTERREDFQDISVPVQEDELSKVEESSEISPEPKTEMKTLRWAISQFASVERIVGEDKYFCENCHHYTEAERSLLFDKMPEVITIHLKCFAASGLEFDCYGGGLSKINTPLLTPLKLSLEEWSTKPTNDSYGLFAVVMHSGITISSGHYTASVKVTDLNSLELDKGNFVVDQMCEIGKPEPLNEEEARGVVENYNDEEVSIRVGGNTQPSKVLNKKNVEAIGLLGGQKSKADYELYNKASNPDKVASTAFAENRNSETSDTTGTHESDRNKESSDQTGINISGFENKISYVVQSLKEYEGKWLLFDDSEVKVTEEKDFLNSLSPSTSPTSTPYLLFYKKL
# Outline: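 Deubiquitinase activity followed as kinetic rhodamine fluorescence release from 150 nM Ub-Rho. 1 nM USP1/UAF1 with compound, after 15 min room-temperature preincubation, in HEPES pH 7.8 buffer containing TCEP, EDTA, BSA and Tween-20.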
# [6] = biological target: Mitogen-activated protein kinase 10 (Mus musculus) (UniProt Q61831); experiment: JNK3 AlphaScreen Assay (AID 530); settings: JNK3 lysate, c-Jun phosphorylation; activity change, negative = inhibition: at 57.1 µM (top of the series);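 note: kinase came from lysate of stimulated human HepG2 cells; signal reports phosphorylation of biotinylated GST-cJun 1-79 at Ser73 with 10 µM ATP; potency is the fitted concentration of half-maximal effect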
# Outline: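 Compound titrations were preincubated 15 minutes at room temperature with substrate, antibody and pre-activated JNK3-containing HepG2 lysate. Reactions were started with 10 uM ATP and stopped with EDTA-containing bead buffer for AlphaScreen detection.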
# [7] = qHTS Assay for Identification of Small Molecule Agonists for Hypoxia Response Element Signaling Pathway (AID 914; active = well fitted activation curve with a large enough effect in the signal ratio, with a control signal flat, not every such curve was filed as active; inconclusive = small, poorly fitted or top-dose-only effect, or effect the other way, or a change in a side signal; the % refers to the signal ratio; note: potency is the fitted concentration of half-maximal effect); settings: ME-180 (cervical carcinoma) HRE-bla reporter, beta-lactamase ratio, CoCl2, 17 h; activation: stronger effect = higher value
# Outline: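 HRE-bla ME-180 assay for agonist-like enhancement of an EC50 CoCl2 stimulus: 17 h at 37 degrees Celsius, CCF4 for 2.5 h, ratiometric 460/530 nm signal converted to %Activity and fitted to AC50.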
# [8] = biological target: Cytochrome P450 2C9 (Homo sapiens) (UniProt P11712); experiment: qHTS Assay for Inhibitors and Substrates of Cytochrome P450 2C9 (AID 883; active = well fitted curve in the direction sought with a large enough effect; inconclusive = small, poorly fitted or top-dose-only effect, or another doubt; inactive = no such curve, though single readings can be large; an effect the other way counts as inactive or inconclusive; note: potency is the fitted concentration of half-maximal effect; nearly all actives have a fitted effect of over 60% in size); settings: recombinant CYP2C9, luciferin-H luminescence, 60 min; activity change, negative = inhibition: at 57.1 µM (top of the series)
# UniProt P11712, sequence (P11712 whole entry, looked up): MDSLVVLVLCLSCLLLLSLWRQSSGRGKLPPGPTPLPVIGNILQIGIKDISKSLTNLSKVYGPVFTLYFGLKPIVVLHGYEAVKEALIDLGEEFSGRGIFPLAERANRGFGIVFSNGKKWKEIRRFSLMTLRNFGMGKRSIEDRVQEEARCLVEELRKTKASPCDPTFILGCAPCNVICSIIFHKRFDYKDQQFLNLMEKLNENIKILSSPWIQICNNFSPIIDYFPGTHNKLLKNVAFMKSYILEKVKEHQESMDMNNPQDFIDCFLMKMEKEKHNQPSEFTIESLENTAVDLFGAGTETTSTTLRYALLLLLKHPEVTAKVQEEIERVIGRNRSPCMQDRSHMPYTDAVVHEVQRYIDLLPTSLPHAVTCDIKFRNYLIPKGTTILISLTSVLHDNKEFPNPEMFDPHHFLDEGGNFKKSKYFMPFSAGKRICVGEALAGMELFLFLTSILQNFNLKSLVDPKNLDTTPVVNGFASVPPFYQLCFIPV
# Outline: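 Luminescent read-out of deoxyluciferin hydroxylation, normalized to 57uM sulphaphenazole (AC100). Reaction: 10nM enzyme, 100uM Luciferin-H (equal to KM), 25mM KPO4, 10 min compound preincubation, then 60 min with NADPH regeneration, both at 37C.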
# [9] = biological target: Cytochrome P450 3A4 (Homo sapiens) (UniProt P08684); experiment: qHTS Assay for Inhibitors and Substrates of Cytochrome P450 3A4 (AID 884; active = well fitted curve in the direction sought with a large enough effect; inconclusive = small, poorly fitted or top-dose-only effect, or another doubt; inactive = no such curve, though single readings can be large; an effect the other way counts as inactive or inconclusive; note: potency is the fitted concentration of half-maximal effect; nearly all actives have a fitted effect of over 50% in size)
# UniProt P08684, sequence (P08684 whole entry, looked up): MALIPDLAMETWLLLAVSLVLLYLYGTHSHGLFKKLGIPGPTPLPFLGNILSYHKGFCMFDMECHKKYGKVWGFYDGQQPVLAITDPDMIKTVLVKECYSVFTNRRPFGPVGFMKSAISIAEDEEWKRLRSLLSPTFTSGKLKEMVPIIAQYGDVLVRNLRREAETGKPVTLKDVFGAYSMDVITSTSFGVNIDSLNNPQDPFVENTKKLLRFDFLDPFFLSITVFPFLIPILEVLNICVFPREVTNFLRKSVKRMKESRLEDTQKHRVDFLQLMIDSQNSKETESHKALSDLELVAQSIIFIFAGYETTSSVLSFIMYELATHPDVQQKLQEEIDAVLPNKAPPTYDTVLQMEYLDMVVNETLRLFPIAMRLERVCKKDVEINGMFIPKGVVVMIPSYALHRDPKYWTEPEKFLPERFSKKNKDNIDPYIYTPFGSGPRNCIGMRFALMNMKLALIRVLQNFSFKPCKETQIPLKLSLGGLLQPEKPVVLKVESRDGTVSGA
# Outline: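 20 nM human CYP3A4 with 25 uM Luciferin-PPXE (at KM) in 200 mM KPO4, preincubated 10 min with compound; NADPH regeneration started a 60 min RT reaction. Luciferin detected by luminescence, normalized to 57 uM ketoconazole as full inhibition.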
# Tags give direction and shape of the fitted curve or compound fluorescence and quenching.
Structure (SMILES),"activity change, negative = inhibition [1]","activity change, negative = inhibition [2]","activity, negative = inhibition [3]",Potency [4],Potency [5],Potency [6],Potency [7],Potency [8],Potency [9]
CC[C@@H]1CN2CCc3cc(OC)c(OC)cc3[C@H]2C[C@@H]1C[C@@H]1NCCc2cc(OC)c(OC)cc21,active: -110% [at 38 µM],active: -112% [at 38 µM],active: -52.6% [at 38 µM],"inconclusive: 6.31 µM [activator, partial curve, poor fit]",–,–,–,–,–
CCNc1ncc2nc(-c3cc(F)cc(F)c3)c(=O)n(CCc3ccccc3)c2n1,active: 109% [activator] [at 7.69 µM],active: 137% [activator] [at 7.69 µM],inconclusive: 154% [activator],–,active: 20 µM,–,–,–,–
O=c1c(-c2cccs2)nc2cnc(Oc3cccc(Cl)c3)nc2n1C[C@H]1CCCO1,inconclusive: 65.9% [activator] [at 7.69 µM],inconclusive: 38.1% [activator] [at 7.69 µM],inconclusive: 99.3% [activator],–,–,"inconclusive: 15.8 µM [activator, partial curve]",active: 3.16 µM,–,–
CN(C)c1ncc2nc(-c3ccc(Cl)cc3)c(=O)n(Cc3cccs3)c2n1,inconclusive: 67.5% [activator] [at 7.69 µM],inconclusive: 101% [activator] [at 7.69 µM],active: 153% [activator],–,inactive,–,active: 0.398 µM,–,–
COc1ccc(-c2nc3cnc(N4CCN(C)CC4)nc3n(Cc3cccs3)c2=O)cc1,inconclusive: 149% [activator] [at 7.69 µM],inconclusive: 171% [activator] [at 7.69 µM],inconclusive: 204% [activator],–,–,"inconclusive: 7.94 µM [activator, partial curve]","inconclusive: 3.98 µM [fluorescent, side channel, single point]",–,–
CN1CCN(c2ncc3nc(-c4cn(C)c5ccccc45)c(=O)n(Cc4cccs4)c3n2)CC1,inconclusive: 34% [activator] [at 7.69 µM],inactive: 3.65% [at 7.69 µM],inconclusive: 81.3% [activator],–,–,"inconclusive: 1.26 µM [activator, full curve]",active: 2.51 µM,–,–
COc1cc2ccc(=O)oc2cc1O,inconclusive: 88.1% [activator],inconclusive: 78.6% [activator],inconclusive: 67.7% [activator] [at 17.2 µM],inactive,–,–,"inconclusive: 12.6 µM [side channel, rising, single point]",–,–
C=C(C)[C@H]1CC[C@]2(C(=O)O)CC[C@]3(C)[C@@H](CC[C@H]4[C@@]5(C)CC[C@@H](O)C(C)(C)[C@@H]5CC[C@@]43C)[C@H]12,inconclusive: 41.5% [activator],inactive: -3.55%,inconclusive: -33.7% [inhibitor] [at 17.2 µM],"inconclusive: 6 µM [activator, single point]",–,–,–,–,–
CN(C)c1ncc2nc(-c3ccc(F)cc3)c(=O)n(CCc3ccccc3)c2n1,inconclusive: 101% [activator] [at 7.69 µM],active: 162% [activator] [at 7.69 µM],inconclusive: 203% [activator],–,–,"inconclusive: 0.794 µM [activator, full curve, poor fit]",active: 1 µM,–,–
COc1ccc(CNc2nc(-c3cccc(NS(C)(=O)=O)c3)nc3ccccc23)c(OC)c1,inconclusive: -69% [inhibitor] [at 7.69 µM],inconclusive: -125% [inhibitor] [at 7.69 µM],inconclusive: -71.2% [inhibitor],"inconclusive: 0.0251 µM [inhibitor, full curve, poor fit]",–,–,"inconclusive: 5.01 µM [cytotoxic, side channel, single point]",active: 0.158 µM,active: 2.51 µM
CN(C)c1ncc2nc(-c3cc(F)cc(F)c3)c(=O)n(CCc3ccccc3)c2n1,inconclusive: 47.5% [activator] [at 7.69 µM],inconclusive: 49.8% [activator] [at 7.69 µM],inconclusive: 179% [activator],–,–,"inconclusive: 0.2 µM [activator, full curve]",active: 2.51 µM,–,–
